In article PMC9574860, “Chemical Toolkit for PARK7: Potent, Selective, and High-Throughput” (Journal of Medicinal Chemistry, 2022):
Among all 7,900 compounds or so, about 400 (5.1%) showed an effect of 50% or more. The list shows a part of the results.

Molecular target: Parkinson's disease protein 7 (PARK7/DJ1) (human, UniProt Q99497)
Assay: primary screen, percent inhibition; read as competition with a fluorescent probe by fluorescence polarization; higher = more effect of the substance
Conditions: 100 µM
Procedure, shortened: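 Fluorescence-polarization probe displacement (JYQ-107, 20 nM final, 2 h) after 2 h preincubation of PARK7 (0.2 μM final) with each fragment at 100 μM final. Read-out ex/em 480/520 nm; remaining activity derived from FP signal loss relative to reference controls.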

Sequence of Parkinson's disease protein 7 (PARK7/DJ1) (Q99497 whole entry, looked up): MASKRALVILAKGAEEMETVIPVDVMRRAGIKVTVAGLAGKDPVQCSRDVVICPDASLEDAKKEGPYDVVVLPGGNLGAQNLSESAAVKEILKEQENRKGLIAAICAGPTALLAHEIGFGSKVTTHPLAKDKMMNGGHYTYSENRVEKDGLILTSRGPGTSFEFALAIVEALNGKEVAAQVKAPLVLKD

| SMILES | Inhibition % |
| --- | --- |
| C=CC(=O)Nc1ccc2c(c1)CCC(C)(C)O2 | 6.26% |
| CC(C)(C)c1ccc(S(=O)(=O)n2ccnc2)cc1 | 17.4% |
| CCOc1cc(S(=O)(=O)n2nc(C)cc2C)c(C)cc1C | 10.4% |
| N#Cc1nccnc1N1CCc2c(F)ccc(F)c2C1 | 41% |
| O=C(CN1C(=O)CCC1=O)c1ccccc1F | 9.1% |
| CCc1cc(S(=O)(=O)n2nc(C)cc2C)ccc1OC | 5.05% |
| O=C(NCCCCl)C1CCCC1 | -1.17% |
| CN(C(=O)CCl)C(c1ccccc1)c1ccccc1 | 6.29% |
| CC(=O)N1CC2(C[C@@H]3O[C@@H]3C2)C1C(C)C (stereo partly drawn) | 3.59% |
| Cc1ccc(NC(=O)N2CCC(C3OCCO3)CC2)cc1 | 4.42% |
| COC(OC)c1ccncn1 | 7.63% |
| CC(C)c1cc(=O)n(CCS(=O)(=O)F)cn1 | 7.39% |
| COc1cnc(C#N)cn1 | 2.82% |
| CC1(C)NC(=O)N(CCCCl)C1=O | 7.23% |
| NC(=O)c1ccc(NC(=O)CCl)cc1 | 35.3% |
| O=C(O)CC1CC(=O)N1 (stereo not drawn) | 65.7% |
| O=C(CCl)Nc1ccon1 | 14.8% |
| Cc1nc(NC(=O)Oc2ccccc2)no1 | 25.1% |
| O=C(O)[C@H]1CCCN1C(=O)C=Cc1ccccc1F | 8.2% |
| C=CC(=O)NC1(c2nc(C)cs2)CCC1 | 3.02% |
| N#CC(=Cc1ccncc1)C(=O)Nc1nccs1 | 8.47% |
| Cc1ccc2cccnc2c1B1OC(C)(C)C(C)(C)O1 | 0.734% |
| CS(=O)(=O)C(C#N)=Cc1ccccc1F | 7.8% |
| O=C(CCCl)N1CCc2ccccc21 | 3.9% |
| CCc1ccc(OC)c(S(=O)(=O)n2nc(C)cc2C)c1 | 9.34% |

| SMILES | Inhibition % |
| --- | --- |
| Sc1ncnc2sccc12 | 10.7% |
| O=C(NC1CN(c2ccccc2)C1=O)c1ncccc1O (stereo not drawn) | 8.82% |
| C=CC(=O)NCc1ccc(C(N)=O)nc1 | 1.59% |
| C=CC(=O)N[C@H]1CCCOC1 | 3.32% |
| O=C(CCl)Nc1cccc(NC(=O)c2ccccc2)c1 | 7.84% |
| Cc1c(C#N)c(NC(=O)CCl)n(Cc2ccc(F)cc2)c1C | 5.15% |
| O=C(O)c1cccc(CN2C(=O)CSC2=O)c1 | 12.1% |
| O=C(O)CN1Cc2ccccc2OC1=O | 11.3% |
| COc1ccc(CCNC(=O)CCl)cc1 | 30.3% |
| C=CC(=O)N1CCc2sccc2C1CC (stereo not drawn) | 7.98% |
| Cc1ccc(CNC(=O)CCl)s1 | 3.17% |
| Cc1ccc(O)c(C(=O)N2CCCC(C3OCCO3)C2)c1 (stereo not drawn) | 5.91% |
| C=CC(=O)N1CCN(c2cccc(OCC)n2)CC1 | 22.3% |
| C=CC(=O)N1CCCC1c1nc(N(C)C)no1 (stereo not drawn) | 5.51% |
| CN(C)CC=CC(=O)N(C1CCC1)C1CCC1 | 7.12% |
| CSc1ccc(NC(=O)CCl)cc1 | 86% |
| C=CC(=O)NCc1ccc(-c2ccccc2F)o1 | 2.54% |
| Cc1ccc(C=C(C#N)C(=O)NC2CC2)s1 | 10.5% |
| C=CC(=O)NCc1cc(F)cc2c1OCOC2 | 1.37% |
| CN(CC(N)=O)c1ccc(C(F)(F)F)c(C#N)n1 | 15.4% |
| CS(=O)(=O)N1CCCc2cc(C(=O)CCl)ccc21 | 76.4% |
| O=C(CCl)Nc1nc2ccc([N+](=O)[O-])cc2s1 | 6.68% |
| CCNC(=O)C(C#N)=Cc1ccc(O)cc1 | 7.71% |
| N#Cc1ncccc1N1CCC=C(F)C1 | 20.1% |
| C=CC(=O)Nc1ccccc1C(F)(F)F | -0.252% |

| SMILES | Inhibition % |
| --- | --- |
| C=C(C)CNC(=O)CCn1c(S)nc2ccccc2c1=O | 10.3% |
| O=C1OC[C@@H]2CN(Cc3ccccc3)C[C@H]12 (racemic) | 6.21% |
| N#Cc1nn(CCOC2CCCCO2)c2ccccc12 (stereo not drawn) | 3.95% |
| C=CC(=O)N1CCC(NC(=O)c2ccncc2)CC1 | 7.61% |
| Fc1ccc(C2=NOC(CCl)C2)cc1 (stereo not drawn) | -2.86% |
| CC(C)c1nnc(SC2CCOC2=O)[nH]1 (stereo not drawn) | 15.3% |
| CC(C)(C)OC(=O)N1CCC(=CB2OC(C)(C)C(C)(C)O2)CC1 | 5.14% |
| COC(=O)c1c(NC(=O)CCl)sc2c1CCC(C)C2 (stereo not drawn) | 9.23% |
| N#Cc1nccn1COC(=O)OC1CCCCC1 | 8.52% |
| N#Cc1ccc(NCC2CCN(CC(F)(F)F)C2)cn1 (stereo not drawn) | 5.73% |
| Cc1cc(C(=O)Cn2cnc(C#N)n2)c(C)n1C | 18.2% |
| O=C(Nc1ccccc1)NN(C(=O)CCl)c1ccccc1 | 93.5% |
| COc1ccc(CN2C(=O)C(F)(F)C2c2ccco2)cc1 (stereo not drawn) | 10.7% |
| C=CC(=O)Nc1cc(C2CCCOC2)nn1C (stereo not drawn) | 10.8% |
| N#CC(=Cc1cnn(-c2ccccc2)c1)C(=O)O | 10.6% |
| C=CC(=O)NC1C2CC3CC1CC(OC)(C3)C2 (stereo not drawn) | 6.12% |
| CCOc1cc(C)c(S(=O)(=O)n2ccnc2)cc1C | 6.38% |
| C=CC(=O)Nc1cnn(C2CCCC2)c1C | 8.41% |
| CC(C)(CNC(=O)CCl)N1CCOCC1.Cl | 13.3% |
| CCCn1c(C)cc(C(=O)Cn2cnc(C#N)n2)c1C | 6.57% |
| CN1C(=O)Cc2cc(C(=O)CCl)ccc21 | 83.4% |
| C=CC(=O)N1CCCC1c1ccc(C)cc1 (stereo not drawn) | 10.5% |
| C=CC(=O)Nc1cc(F)cc(F)c1 | 2.67% |
| CCC(C#N)NS(=O)(=O)c1ccc(S(=O)(=O)F)cc1 (stereo not drawn) | 31.6% |
| Cc1cc(C(=O)Cn2cnc(C#N)n2)c(C)[nH]1 | 7.96% |

| SMILES | Inhibition % |
| --- | --- |
| O=S(=O)(C=Cc1ccccc1)Nc1c(F)cccc1F | 11.7% |
| Cc1occc(=O)c1OS(=O)(=O)c1ccc(Cl)cc1 | -4.32% |
| CCn1c2ccccc2c2cc(NC(=O)CCl)ccc21 | 3.25% |
| OB(O)C1CCN(Cc2cc3c(cn2)OCCO3)C1 (stereo not drawn) | 21.4% |
| N#CC(=Cc1ccccc1)C(=O)NC1CC1 | 4.34% |
| CC(=O)Nc1ccc(C(=O)CCl)cc1 | 82.5% |
| C=CC(=O)N1Cc2cc(F)c(F)cc2C1 | 2.84% |
| CNC(=O)Oc1cccc(N)c1 | 20.5% |
| Cc1nn(-c2ccccc2)c(O)c1C(=O)CCl | 64.4% |
| Cn1nccc1[C@@H]1OCC[C@H]1CN1CC=C(B(O)O)CC1 | 44.8% |
| Fc1cccc(CN2CCCC(C3OCCO3)C2)c1 (stereo not drawn) | 8.13% |
| C=CC(=O)Nc1c(C)noc1C(C)C | 5.79% |
| Cc1c(B2OC(C)(C)C(C)(C)O2)ccc2c1CCO2 | -1.11% |
| COC1CCN(c2nc(C#N)ccc2C)CC1 | 71.3% |
| N#Cc1ncccc1N1CCC(N2CCNC2=O)CC1 | 9.41% |
| N#Cc1ncn(CC(=O)Nc2ccc(Cl)c(Cl)c2)n1 | -4.41% |
| Cc1ccc(SCCNC(=O)CCl)cc1 | 24% |
| C=CC(=O)Nc1c(C)nn(C(C)C)c1C | 0.88% |
| COCCNC(=O)C(C#N)=Cc1c(Cl)cccc1Cl | 2.17% |
| CC1(C)OB(C=Cc2ccccc2Cl)OC1(C)C | 12.9% |
| COc1ccc(C)cc1S(=O)(=O)n1nc(C)cc1C | -9.96% |
| C=CC(=O)NC1CCC2CCC1OC2 (stereo not drawn) | 9.75% |
| CNC(=O)c1ccc(C=C(C#N)c2ccccn2)cc1 | 19.5% |
| C=CC(=O)N1CCN(C)Cc2cccnc21 | 20.2% |
| C=CC(=O)N1CC(C)(C)O[C@@H]2COC[C@H]21 (racemic) | 4.11% |

| SMILES | Inhibition % |
| --- | --- |
| C=CC(=O)N1CCC(C(=O)NC)C1 (stereo not drawn) | 2.58% |
| CSc1ccccc1NC(=O)CCn1cnc(C#N)n1 | 6.66% |
| CN(Cc1ncnn1C)S(=O)(=O)C=Cc1ccccc1 | 3.12% |
| CC1CCC(O)(Cn2cnc(C#N)n2)CC1 (stereo not drawn) | 5.82% |
| C=CC(=O)N1Cc2ccccc2C(C)(C)C1 | 9.47% |
| Cc1cc(C#N)nn1C | 5.45% |
| O=C1CC(C2CC2)=NO1 | 11.4% |
| C=CC(=O)NC1C(C)OC(C)C1C (stereo not drawn) | 6.51% |
| O=C(CCCl)Nc1ccc(N2CCOCC2)cc1 | 2.86% |
| N#Cc1nccnc1SC1CCCC1 | 6.92% |
| O=C(C=Cc1csc(-c2ccc(F)cc2)n1)N1CCC1 | 13.5% |
| N#Cc1nccn1CC(=O)c1ccccc1F | 0.898% |
| C=CC(=O)NCCn1nc2ccccn2c1=O | 7.98% |
| CNC(=O)C(C#N)=Cc1ccc(N2CCOCC2)cc1 | 4.34% |
| O=C(CC1SC(=O)NC1=O)Nc1ccccc1 (stereo not drawn) | 82.7% |
| Cc1cc(NS(=O)(=O)C2=CCCCC2)c[nH]c1=O | 48.5% |
| C=CC(=O)N(Cc1ccco1)c1nccs1 | 6.14% |
| C=CC(=O)N1CCC(C2CCCO2)CC1 (stereo not drawn) | 5.38% |
| C=CC(=O)NCCCn1ccnc1 | -0.252% |
| CCC1C(=O)NCCN1Cc1cccc(C#N)n1 (stereo not drawn) | 35.8% |
| Cc1ccc(C2CN(C(=O)c3cccnc3S)CCO2)o1 (stereo not drawn) | 8.62% |
| CC(=O)NCCc1ccc(C(=O)CCl)s1 | 90.4% |
| N#CC(=Cc1cccnc1)c1nc(-c2ccncc2)cs1 | 6.31% |
